Test results from the supplement of paper PMC4723716.
± gives the uncertainty stated by the source. In all, about 9,900 compounds were measured (“viability index relative to DMSO control”: median about 1, lowest 2% from about 0.85 on). The list shows a part of the results.

These compounds were tested on Plasmodium falciparum NF54 stage V gametocytes (assay: viability index relative to DMSO control (fraction); higher = less gametocyte killing). Settings: 2.5 µM, library set: Broad Institute DOS, incubation time: 72 h.
Procedure, shortened: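 Gametocytes (P. falciparum NF54, stage V) were treated with compound at 2.5 µM for 72 hr at 37°C in low oxygen, in serum-free medium at 0.75% gametocytemia and 1.25% hematocrit. Counts of 20–70 µm2 red particles, taken from one field per well after MitoTracker Red CMXRos with saponin, were divided by the plate mean of solvent-only wells. This ratio is the viability index.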
In the case of C[C@@H]1CN([C@H](C)CO)C(=O)c2cc(N(C)C)ccc2O[C@@H](C)CCCCO[C@H]1CN(C)C(=O)NC1CCCCC1, the viability index is reported as 1.07 ± 0.081.
With CCCNC(=O)N(C)C[C@H]1[C@H](c2ccccc2)[C@@H](CO)N1C(=O)c1ccccc1 the viability index was 1.08 ± 0.012.
Work on O=C(CN1CCOCC1)N1C[C@@H]2N[C@H](C1)[C@@H]2c1ccc(/C=C/c2ccccc2)cc1 yielded a viability index of 1.0546 ± 0.00012.
CS(=O)(=O)N1[C@H](CO)[C@H](c2ccccc2-c2ccccc2F)[C@@H]1C#N showed a viability index of 1.09 ± 0.019.
Work on CCCC#Cc1ccc([C@H]2[C@H]3CN(C(=O)Nc4cccc(F)c4)CC(=O)N3[C@H]2CO)cc1 yielded a viability index of 1.1 ± 0.015.
In the case of CO[C@H]1CN(C)C(=O)c2cc(NC(=O)C3CCCCC3)ccc2OC[C@H](C)N(Cc2cccnc2)C[C@H]1C, the viability index is reported as 1.037 ± 0.0049.
O=C(C[C@@H]1C[C@@H]2c3cc(NC(=O)NC4CCCC4)ccc3O[C@@H]2[C@H](CO)O1)NCc1ccccc1F showed a viability index of 1.06 ± 0.024.
With N#C[C@@H]1[C@H](c2ccccc2C2=CCCC2)[C@H](CO)N1C(=O)NC1CCCCC1 the viability index was 1.1 ± 0.066.
Work on COc1cccc(-c2ccc([C@H]3[C@@H](C#N)N(C(=O)Cc4ccncc4)[C@@H]3CO)cc2)c1 yielded a viability index of 1.109 ± 0.0041.
CO[C@@H](CN(C)Cc1cc(F)ccc1F)[C@@H](C)CN([C@H](C)CO)S(=O)(=O)c1ccc(C)cc1 showed a viability index of 0.936 ± 0.054.
With O=C(NC1CCCC1)N[C@@H]1C=C[C@H](CC(=O)N2CCOCC2)O[C@H]1CO the viability index was 1.059 ± 0.0098.
Work on C[C@H]1C/C=C/C[C@H](c2ccc(F)cc2)NC(=O)[C@H](Cc2ccccc2)N(C)C(=O)c2ccccc2O1.C[C@H]1C/C=C\C[C@H](c2ccc(F)cc2)NC(=O)[C@H](Cc2ccccc2)N(C)C(=O)c2ccccc2O1 yielded a viability index of 0.965 ± 0.083.
Compound CN1C(=O)c2cc(NS(C)(=O)=O)ccc2OC[C@@H]2O[C@H](CC(=O)NCc3ccccc3)CC[C@H]21 has a viability index of 1.13 ± 0.08.
With O=C1CCCc2cnnn2COCCN1 the viability index was 0.993 ± 0.1.
COC(=O)C[C@@H]1CC[C@@H]2[C@H](COc3ccc(NC(=O)Nc4cccc(C#N)c4)cc3C(=O)N2C)O1 gave a viability index of 1.116 ± 0.0093.
Work on CCNC(=O)c1cc2c(c(-c3cccc(-c4cccnc4)c3)n1)[C@H](CCO)N(S(C)(=O)=O)C2 yielded a viability index of 1.04 ± 0.018.
Cc1noc(C)c1S(=O)(=O)Nc1ccc2c(c1)CC(=O)N([C@@H](C)CO)C[C@@H](C)[C@@H](CN(C)Cc1ccc(Oc3ccccc3)cc1)O2 was tested, and the viability index was 0.851 ± 0.12.
COc1cccc(-c2cccc(-c3nc(C(=O)O)cc4c3[C@@H](CCO)N(S(=O)C(C)(C)C)C4)c2)c1 (stereo not given in full) showed a viability index of 1.009 ± 0.0083.
With Cc1cccc(S(=O)(=O)N[C@@H]2CC[C@@H](CCNC(=O)Nc3cc(F)ccc3F)O[C@@H]2CO)c1 the viability index was 1.15 ± 0.057.
For O=C(NC1CCCC1)N[C@H]1C=C[C@@H](CC(=O)N2CCOCC2)O[C@H]1CO, the viability index was 1.1 ± 0.16.
C[C@H]1CN([C@@H](C)CO)C(=O)c2cc(-c3cccc(C(=O)N(C)C)c3)cnc2O[C@H]1CN(C)C(=O)Cc1ccccn1 was tested, and the viability index was 1.04 ± 0.013.
Compound C/C=C/c1ccc([C@@H]2[C@@H](CO)N3C(=O)CN(S(=O)(=O)c4ccccc4)C[C@H]23)cc1 has a viability index of 1.11 ± 0.026.
In the case of CC(C)NC(=O)Nc1ccc2c(c1)C(=O)N([C@@H](C)CO)C[C@H](C)[C@@H](CN(C)C(=O)C1CCCCC1)OCCCC[C@@H](C)O2, the viability index is reported as 1.06 ± 0.024.
CC(C)NC(=O)N[C@@H]1CC[C@H](CC(=O)NCCCN(C)C)O[C@H]1CO was tested, and the viability index was 1.01 ± 0.017.
Work on C[C@H]1CN([C@@H](C)CO)C(=O)c2ccccc2-c2ccccc2CO[C@@H]1CN(C)C(=O)[C@@H](Cc1ccccc1)N(C)C yielded a viability index of 1.04 ± 0.19.
For COc1ccc(S(=O)(=O)Nc2ccc3c(c2)C(=O)N([C@@H](C)CO)C[C@@H](C)[C@H](CN(C)Cc2ccc(C(F)(F)F)cc2)OCCCC[C@H](C)O3)cc1, the viability index was 1.07 ± 0.046.
Compound Cc1noc(C)c1NC(=O)N1C[C@H](O)COC[C@H]2O[C@@H](CC(=O)N[C@@H]3CCN(Cc4ccccc4)C3)CC[C@@H]21 has a viability index of 0.963 ± 0.025.
Work on CCC(=O)Nc1ccc2c(c1)OC[C@@H](C)N(Cc1ccccc1)C[C@@H](C)[C@@H](OC)CN(C)C2=O yielded a viability index of 1.05 ± 0.028.
CCCNC(=O)N1[C@@H]2c3cccc(=O)n3C[C@H]1[C@H](CO)[C@H]2C(=O)N1CCC(Cc2ccccc2)CC1 gave a viability index of 1.06 ± 0.012.
With CN1C(=O)c2cc(NC(=O)c3ccccc3Cl)ccc2OC[C@H]2O[C@@H](CC(=O)Nc3ccc4c(c3)CCC4)CC[C@@H]21 the viability index was 1.16 ± 0.036.
Work on C[C@@H]1CN([C@@H](C)CO)C(=O)c2ccccc2-c2ccccc2CO[C@@H]1CN(C)C(=O)[C@H]1CCCN1C yielded a viability index of 0.941 ± 0.073.
COCC(=O)Nc1ccc2c(c1)C(=O)N(C)C[C@H](OC)[C@H](C)CN(CCc1ccccc1)[C@@H](C)CO2 gave a viability index of 1.03 ± 0.049.
In the case of O=C(C[C@H]1C=C[C@@H](NS(=O)(=O)c2ccc(F)cc2)[C@H](CO)O1)N1CCc2ccccc2C1, the viability index is reported as 1.03 ± 0.029.
C/C=C/c1ccc([C@H]2[C@@H](CN(C)C(C)=O)N(C(=O)NC(C)C)[C@H]2CO)cc1 was tested, and the viability index was 1.03 ± 0.014.
Work on COc1cccc(C(=O)Nc2ccc3c(c2)C(=O)N(C)[C@@H]2CC[C@@H](CC(=O)N[C@H](C)c4ccccc4)O[C@@H]2CO3)c1 yielded a viability index of 1.18 ± 0.073.
